Source: PubChem BioAssay AID624330 (Southern Research Specialized Biocontainment Screening …, 2012)
Hit rate of the full screen: of about 340,000 compounds, about 2,100 (0.62%) were called active. The inconclusive results got no clear call from the source; some entries with a clear call stand among them for comparison.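 How the source made its calls: active means first-screen hits whose inhibition reached a set limit at any dose in the follow-up dose series; inconclusive means inhibition above the set first-screen limit but never retested; inactive means the rest.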

target: Rac GTPase-activating protein 1 (Homo sapiens) (UniProt Q9H0H5); experiment: blockers of MgcRacGAP-driven Rac1 GTP hydrolysis – biochemical, ADP Hunter fluorescence, primary and confirmatory, confirmation (AID 624330); settings: MgcRacGAP-stimulated Rac1 GTP hydrolysis, at 30 µM, active compounds read high, GST-tagged Rac1 F28L mutant substrate;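 further: fluorescence reports GDP produced by GAP-driven GTP hydrolysis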
Sequence of UniProt Q9H0H5 (Q9H0H5 whole entry, looked up): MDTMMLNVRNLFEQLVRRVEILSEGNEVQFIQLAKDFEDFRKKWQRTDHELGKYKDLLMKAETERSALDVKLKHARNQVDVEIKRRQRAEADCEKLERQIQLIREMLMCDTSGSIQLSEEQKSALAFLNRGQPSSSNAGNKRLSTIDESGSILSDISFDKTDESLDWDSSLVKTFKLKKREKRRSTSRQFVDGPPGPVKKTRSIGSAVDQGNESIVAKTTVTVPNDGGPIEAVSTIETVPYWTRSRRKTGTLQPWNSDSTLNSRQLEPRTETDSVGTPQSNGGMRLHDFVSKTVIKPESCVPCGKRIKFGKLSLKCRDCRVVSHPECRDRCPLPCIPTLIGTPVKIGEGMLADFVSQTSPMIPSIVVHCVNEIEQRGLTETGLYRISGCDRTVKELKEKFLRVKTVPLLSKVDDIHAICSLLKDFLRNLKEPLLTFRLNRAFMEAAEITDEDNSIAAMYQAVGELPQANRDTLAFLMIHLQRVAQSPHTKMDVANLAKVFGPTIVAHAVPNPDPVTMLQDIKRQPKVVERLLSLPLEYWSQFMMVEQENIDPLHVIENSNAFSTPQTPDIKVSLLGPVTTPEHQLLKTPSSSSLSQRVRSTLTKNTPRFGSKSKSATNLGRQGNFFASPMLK

Structure (SMILES) | inhibition
COc1ccc(-n2cccc2C=O)cc1 | inactive: 4.9%
CN(C)c1ccc(NS(=O)(=O)c2cc3c4c(c2)CC(=O)N4CCC3)cc1 | inconclusive: 32.8%
CCN(CC)c1ccc(/C=C2\NC(=O)NC2=O)cc1 | inactive: 30.9%
COC(=O)Nc1ccc(SCC(=O)c2cccc([N+](=O)[O-])c2)cc1 | inconclusive: 33.8%
c1ccc(Cn2c(SCc3nc4ccccc4s3)nnc2-c2ccco2)cc1 | inconclusive: 37.7%
COc1ccc(NCN2C(=O)C3C4C=CC(C4)C3C2=O)cc1 (centres undefined) | inconclusive: 35.4%
COc1ccccc1NC(=O)c1cccs1 | inactive: 0.52%
COc1ccc(-c2c[n+]3c4n2CCCCC4=C(c2ccccc2)C3)cc1 | inactive: 8.53%
O=C1S/C(=C\c2ccc(N3CCOCC3)o2)C(=O)N1Cc1ccc(F)cc1 | inconclusive: 32%
Oc1ccc(Nc2nc(NCC3CCCO3)c3ccccc3n2)cc1 (centres undefined) | inconclusive: 71.5%
COC(=O)c1[nH]c2ccc(Br)cc2c1NC(=O)Oc1ccccc1 | inconclusive: 94.8%
COCCN=c1scc(-c2ccc3c(c2)NC(=O)CO3)n1/N=C(\C)c1ccc(O)cc1 | inconclusive: 33.3%
Oc1ccc(N2CCN(C(c3ccncc3)c3nnnn3C3CCCC3)CC2)cc1 (centres undefined) | inconclusive: 55.8%
CN(C)c1ccc(CN2CCC(C(N)=O)CC2)cc1 | inconclusive: 41.1%
COc1cc(Cn2nnc3ccccc32)ccc1O | inconclusive: 48%
Cc1cccnc1Nc1nc(-c2ccc(O)c(O)c2)cs1 | inconclusive: 58.7%
O=CN1CCc2scc[n+]2-c2ccccc21 | inconclusive: 34.5%
CCN(CC)S(=O)(=O)c1cccc(NC(=O)CN(C)Cc2cccc(OC)c2)c1 | inconclusive: 32.1%
COc1cc(/C=N/Nc2nc(=O)[nH]nc2C)ccc1O | inconclusive: 76.6%
O=C(Nc1cccnc1)c1ccc2ccccc2c1O | inconclusive: 69.1%
Nc1nc2ccc(O)cc2s1 | inconclusive: 83.7%
Cc1ccc(NC(=O)CN2C(=O)N/C(=C/c3cccn3-c3ccc(C(=O)O)cc3)C2=O)cc1 | inconclusive: 49.4%
COc1cc(/C=C(\C#N)C(=O)N2CCCCC2)ccc1O | inconclusive: 51.7%
CC(=O)N/C(=C\c1ccccc1)C(=O)Nc1ccc(O)cc1 | inconclusive: 52.9%

Structure (SMILES) | inhibition
CN(C)c1ccc(N=Cc2ccco2)cc1 | inconclusive: 42.1%
CN(C)S(=O)(=O)c1cccc(NC(=O)CNC2CCCCC2)c1 | inconclusive: 35.6%
COCCNC(=S)Nc1ccc(N2CCCCC2)cc1 | inconclusive: 32.6%
COc1cc(/C=N/NC(=O)C(=O)/C=C2\NC(C)(C)Cc3ccccc32)ccc1O | inconclusive: 34%
CCNC(=O)N1CCC(n2nccc2NC(=O)CCCc2ccccc2)CC1 | inactive: 6.88%
O=C1CSC(=S)N1/N=C/c1cc(Br)c(O)c(Br)c1 | inconclusive: 43.8%
Nc1ccc(-c2nc3c(Cl)c(N)ccc3[nH]2)cc1 | inconclusive: 35.9%
COC(=O)C1CCN(S(=O)(=O)Cc2ccccc2Cl)CC1 | inactive: 7.49%
CCN=c1scc(C)n1/N=C/c1cc(Br)c(O)c(Br)c1 | inconclusive: 35.2%
COc1cc(/C=N/NC(=S)Nc2cccc(S(=O)(=O)N(C)C)c2)cc(OC)c1O | inactive: -1.97%
CCn1c(C)nc2cc(C(=O)N/N=C/c3cccc(OC)c3O)ccc21 | inactive: 15%
COc1cc(OC)c(OC)cc1/C=N/NC(=O)c1cnccn1 | inactive: 9.21%
COc1cc(/C=N/NC(=O)CNC(=O)c2ccncc2)ccc1O | inconclusive: 96%
O=C(Nc1ccc(O)cc1)c1ccc2c(c1)C(=O)N(Cc1ccco1)C2=O | inconclusive: 67.9%
CCCc1nc(NCc2ccccc2)c(C#N)c2c1CCCC2 | inactive: 8.86%
COc1ccc(CCNCC(O)COc2cccc(Br)c2)cc1OC (centres undefined) | inconclusive: 34.8%
C/C(=N\Nc1cc(N2CCOCC2)ncn1)c1ccc(O)cc1 | inconclusive: 78.9%
O=S(=O)(Nc1ccc(O)cc1)c1cccc2cccnc12 | inconclusive: 57.7%
CC(=O)c1cc2c(O)c(O)ccc2o1 | inconclusive: 71.6%
COc1ccc(OCc2nnc3n2N=C(c2ccccc2)C(CC(=O)O)S3)cc1 (centres undefined) | inconclusive: 32.7%
CCN(CC)S(=O)(=O)c1cccc(C(=O)N/N=C/c2cccc(O)c2O)c1 | inactive: 15%
COc1ccc(C(=O)N/N=C/c2sc(N3CCOCC3)nc2-c2ccccc2)cc1OC | inactive: 7.1%
C[C@@H](NC(=O)/C(C#N)=C/c1ccc(O)c(O)c1)c1ccccc1 | inconclusive: 63.2%
Nc1ccc(N2CCN(CCCCN3C(=O)C4CCCN4C3=O)CC2)cc1 (centres undefined) | inconclusive: 108%

Structure (SMILES) | inhibition
O=C1NC(=O)/C(=C\c2ccc(O)cc2O)S1 | inconclusive: 125%
COC(=O)c1cc(C(=O)OCC(=O)N(C)C2CCS(=O)(=O)C2)cc([N+](=O)[O-])c1 (centres undefined) | inactive: -3.52%
CSc1nc(Cl)cc(Nc2ccc(O)cc2)n1 | inconclusive: 93.1%
COc1ccc2c(c1)Sc1ccccc1N2CCN(C)C | inconclusive: 55%
Cn1cnnc1SCC(=O)c1ccc(O)c(O)c1 | inconclusive: 36.9%
Cc1ccc(NC(=O)CCN2CCN(CCO)CC2)cc1Br | inactive: 7.64%
COc1cc(/C=N/NC(=O)c2cccc(S(=O)(=O)N3CCCC3)c2)ccc1O | inconclusive: 93.3%
Cc1ccnc(-n2sc3ccccc3c2=O)n1 | inconclusive: 33.4%
CCCCCCCCCCCCCCCC[N+](C)(C)CCl | inactive: 15.1%
C#CCOCCOCCOCCNc1nc(N2CCN(C(=O)CCCCCCCCCCNC(=O)Cn3cc(CCCCCN)nn3)CC2)nc(N2CCN(C(=O)CCCCCCCCCCNC(=O)[C@@H](CCSC)n3cc(CCO)nn3)CC2)n1 | inconclusive: 60.6%
COc1cc(/C=C/C(=O)OCC(=O)N2CCC(C)CC2)ccc1O | inconclusive: 47.8%
CC1(C)Cc2c(sc3[nH]c(=S)n(Cc4ccco4)c(=O)c23)CO1 | inconclusive: 40.7%
Cc1ccc(Nc2nc3ccccc3o2)cc1F | inactive: 1.08%
CCOc1ccc(/C=N/N(C)c2ccccc2)cc1OC | inactive: 8.29%
CCN(CC)C(=O)c1ccc(-c2nnc(Nc3ccc(O)cc3)c3ccccc23)cc1 | inconclusive: 59.6%
Cn1c(=Nc2ccccc2)sc2ccccc21 | inactive: 4.04%
O=C(CSc1nc2cc(S(=O)(=O)N3CCOCC3)ccc2o1)Nc1c(F)cccc1F | inconclusive: 32.6%
C#CCOCCOCCOCCNc1nc(N2CCN(C(=O)CCCCCCCCCCNC(=O)[C@H](CCCCN)n3cc(C)nn3)CC2)nc(N2CCN(C(=O)CCCCCCCCCCNC(=O)[C@@H]([C@H](C)O)n3cc(C)nn3)CC2)n1 | inconclusive: 55.2%
CCNc1nc(NCC)nc(N/N=C/c2ccccc2)n1 | inactive: 5.89%
O=C1NC(=Nc2ccc(O)cc2)S/C1=C/c1ccco1 | inconclusive: 35.5%
CCOc1c(O)ccc(/C=C2\SC(=S)NC2=O)c1[N+](=O)[O-] | inconclusive: 65.1%
COC(=O)Nc1ccc(S(=O)(=O)Nc2ccc(O)cc2)cc1 | inconclusive: 63.3%
O=S1(=O)CCN(Cc2cccnc2)CC1 | inactive: 0.02%
O=C(Oc1cccc2c(O)cccc12)c1ccco1 | inconclusive: 33.1%

Structure (SMILES) | inhibition
COc1ccc(-c2ncc3ccccn23)cc1 | inactive: 14.9%
CN(C)c1ccc(N=Cc2cccn2C)cc1 | inconclusive: 47%
Oc1ccc(-c2csc(Nc3ncccn3)n2)cc1O | inconclusive: 99.3%
CN(CCOc1ccccc1)CC(O)COCc1ccccc1F (centres undefined) | inconclusive: 34.5%
O=C(O)CN1C(=O)/C(=C\C(Br)=C\c2ccccc2)SC1=S | inconclusive: 33.5%
COc1ccccc1NC(=O)N1CCN(Cc2ccc3c(c2)OCO3)CC1 | inconclusive: 32.8%
CCn1c(/C=C/c2ccc(O)c(O)c2)nc2ccccc2c1=O | inconclusive: 78.4%
COc1nn(CC(=O)N2N=C(C(F)F)CC2(O)C(F)F)cc1[N+](=O)[O-] (centres undefined) | inactive: 5.35%
COc1ccc(-c2nc3ccccc3s2)cc1O | inactive: 11.7%
COC(=O)c1ccc2nc(C)cc(Nc3ccc(N(C)C)cc3)c2c1 | inconclusive: 40.8%
COc1cc(C(=O)OCn2nnc3ccccc3c2=O)cc(OC)c1OC | inactive: 5.8%
COc1ccc(NC2CCCN(C(=O)c3ccc(OC)o3)C2)cc1 (centres undefined) | inconclusive: 80.3%
CC(NCC(=O)Nc1cc(S(=O)(=O)N2CCCCCC2)ccc1Cl)c1ccccc1 (centres undefined) | inconclusive: 50.3%
Nc1ccc2c(c1)C(=NO)c1ccccc1-2 | inactive: 14.6%
Cc1ccc(/C=N\NC(=O)CC(=O)NCCc2ccccc2)cc1 | inactive: -1.99%
Cc1ccc2oc(=O)c(/C=C(\O)CC(C)C)nc2c1 | inconclusive: 61.7%
Cc1cccc(CN2CCC(N3CC(C)OC(C)C3)CC2)c1 (centres undefined) | inconclusive: 33%
COc1cccc(CNc2ccc3[nH]c(=O)[nH]c3c2)c1OCc1ccccc1F | inconclusive: 58.7%
CCOc1cc(/C=C(/C#N)C(=O)Nc2ccc(O)cc2)cc(Br)c1O | inconclusive: 81.5%
Cn1c(/N=C/c2c[nH]c3ccccc23)nc2ccccc21 | inactive: 8.49%
COc1cc(/C=C2\NC(=S)N(C)C2=O)ccc1O | inconclusive: 106%
CCOC(=O)C(=O)Nc1cccc(C(=O)OCC)c1 | inactive: -6.93%
